The supplement of paper PMC3334620
Over roughly 33,000 sequences, “E-score (-0.5 to 0.5)” has its median near -0.035; the highest 2% begin near 0.35. Some of the results follow.

Molecular target: T1, Pdr3 (UniProt P33200)
T1 sequence: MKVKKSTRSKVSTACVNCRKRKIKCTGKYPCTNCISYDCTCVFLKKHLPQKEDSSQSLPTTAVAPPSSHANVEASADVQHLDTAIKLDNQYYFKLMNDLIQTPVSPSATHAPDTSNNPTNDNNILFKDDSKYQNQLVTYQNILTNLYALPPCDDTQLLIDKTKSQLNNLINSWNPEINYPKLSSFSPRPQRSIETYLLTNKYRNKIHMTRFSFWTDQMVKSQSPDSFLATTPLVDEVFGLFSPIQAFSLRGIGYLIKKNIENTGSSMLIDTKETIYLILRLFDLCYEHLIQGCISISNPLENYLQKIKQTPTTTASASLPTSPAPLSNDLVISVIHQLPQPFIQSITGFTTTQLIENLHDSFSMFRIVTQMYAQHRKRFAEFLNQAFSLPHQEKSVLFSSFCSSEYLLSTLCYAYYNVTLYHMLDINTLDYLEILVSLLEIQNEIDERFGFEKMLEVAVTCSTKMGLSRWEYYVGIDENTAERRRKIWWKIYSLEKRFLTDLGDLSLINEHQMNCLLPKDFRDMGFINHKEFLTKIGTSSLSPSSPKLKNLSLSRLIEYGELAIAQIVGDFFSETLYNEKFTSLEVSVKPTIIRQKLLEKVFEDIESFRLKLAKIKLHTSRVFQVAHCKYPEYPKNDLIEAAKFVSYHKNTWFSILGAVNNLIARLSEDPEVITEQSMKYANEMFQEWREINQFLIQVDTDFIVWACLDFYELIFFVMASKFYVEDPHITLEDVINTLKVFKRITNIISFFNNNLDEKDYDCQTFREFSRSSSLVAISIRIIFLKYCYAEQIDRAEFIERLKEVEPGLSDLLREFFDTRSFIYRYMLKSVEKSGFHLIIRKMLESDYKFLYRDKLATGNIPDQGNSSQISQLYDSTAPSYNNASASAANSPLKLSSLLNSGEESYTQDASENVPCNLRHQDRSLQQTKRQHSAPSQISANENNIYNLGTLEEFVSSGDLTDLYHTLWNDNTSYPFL
Experiment: PBM E-score (8-mer binding enrichment) (E-score (-0.5 to 0.5)); higher = stronger / more preferred TF binding; most listed sequences are background and not binding sites
Conditions: protein concentration: 200 nM; construct: GST-full length
Method: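 Universal 'all 10-mer' protein binding microarrays (Agilent AMADID 015681) probed with GST-tagged S. cerevisiae TFs (full-length or DBD) made by in vitro transcription/translation (PURExpress), about 100-200 nM. Bound TF was detected with fluorescent anti-GST. Each ungapped 8-mer (which stands for itself and its reverse complement) is scored by the PBM enrichment score (E-score), a modified Wilcoxon-Mann-Whitney statistic from -0.5 to +0.5, computed with the Universal PBM Analysis Suite. Scale: above 0.35 generally sequence-specific binding.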

| Sequence | PBM E-score |
| --- | --- |
| AGCGTGAT | 0.00665 |
| GTACGTCA | -0.2 |
| CCTTTCAC | -0.109 |
| ATTGGCCG | 0.276 |
| CAACGCTC | -0.249 |
| CAGAGGAG | -0.195 |
| CCTTGGCC | -0.182 |
| GCATATTA | 0.0652 |
| GCGTTTCC | 0.315 |
| AGTCGTAG | -0.197 |
| AGGCGAAG | -0.137 |
| CCGCCCAA | 0.0443 |
| ATTTGCAG | -0.0031 |
| GCGTTCCA | -0.088 |
| CAGACGCC | -0.0932 |
| GCGCGGGA | 0.312 |
| GCGCCACC | -0.126 |
| ATTTCATC | 0.119 |
| CAGGAATC | 0.0807 |
| TATAATGA | 0.0163 |
| AGAACCAG | -0.0734 |
| ATTAAGTG | 0.00402 |
| GGTTCAAA | 0.0199 |
| CGCACCAG | 0.133 |
| CGTATCCC | -0.0169 |

| Sequence | PBM E-score |
| --- | --- |
| GTTTTCTA | -0.0574 |
| ATAATCCG | 0.258 |
| AGTACTTC | 0.175 |
| GCCCTGTA | -0.00835 |
| GAAAAAGA | -0.051 |
| GCAAAAAA | 0.0339 |
| ATTCCGGA | 0.481 |
| GCGTTACA | -0.19 |
| ATCTGTGG | -0.162 |
| GCAGCAGA | -0.0786 |
| AATGTCCC | 0.152 |
| AGACCGGC | -0.0301 |
| AATCCGAA | 0.0894 |
| GCATTTCA | 0.017 |
| GATATGGA | 0.231 |
| AGGTTCGG | 0.156 |
| ATACATTA | 0.0213 |
| AGGCGACA | -0.148 |
| ATCCGTGG | 0.428 |
| AAGCTGGC | -0.11 |
| CAGGGAAA | 0.0962 |
| GCGACCAC | 0.132 |
| AGAACCGA | 0.0498 |
| GTACCCAA | -0.0916 |
| CACATCTA | -0.00108 |

| Sequence | PBM E-score |
| --- | --- |
| GACTAGTC | -0.254 |
| AGTATACC | -0.0582 |
| CAGAACCC | -0.0441 |
| CTGCCCTC | -0.295 |
| CCTCACAC | -0.202 |
| ACTACTGC | -0.109 |
| CGAGCTCC | 0.17 |
| GTTCCTAA | 0.044 |
| GCATGAGA | -0.0582 |
| ACATTGAC | -0.0326 |
| CCAACTCA | -0.0551 |
| GGCACAAC | -0.0445 |
| CAAAGGTA | -0.211 |
| TGTTCCAA | -0.139 |
| GAACCGTA | -0.0571 |
| CCGCAGCG | 0.161 |
| GCGTAAAC | -0.0119 |
| CTCGCTGA | -0.026 |
| ACTTTGGC | -0.0628 |
| ACTATCGA | -0.016 |
| ATAAAACG | 0.205 |
| AGGGGTGA | -0.235 |
| CAAACGGG | 0.184 |
| ATAGCGTC | -0.153 |
| GCCACGCC | -0.137 |

| Sequence | PBM E-score |
| --- | --- |
| CACTTCGA | -0.0223 |
| CTACAGGC | -0.0559 |
| GGTTGTAC | -9e-05 |
| CAAAAATA | 0.146 |
| GTCGAAAC | 0.0492 |
| ATGAACGC | 0.0678 |
| TCCTATAA | -0.17 |
| CAATAATG | -0.198 |
| GAAGACAA | -0.0754 |
| TGAAGAAA | 0.0654 |
| GCCTAGAA | -0.153 |
| CTATCCGA | 0.17 |
| CCACATCC | 0.0947 |
| CAGACTGG | -0.237 |
| CCAAATCC | 0.169 |
| GCGAGGGA | -0.0123 |
| ACATTTCC | 0.238 |
| ACATGTTG | 0.0079 |
| GATTCAGC | 0.0177 |
| AGTTGCAC | -0.136 |
| ATGTTAGC | -0.178 |
| ACTCAATC | -0.115 |
| TAGTTAGA | -0.154 |
| CAGGTGCG | 0.0828 |
| AGTCGTGC | -0.228 |

| Sequence | PBM E-score |
| --- | --- |
| AGGTCCCC | -0.0629 |
| ACTGGCTC | -0.0586 |
| AATCAACG | 0.0182 |
| ACGTTCGC | -0.135 |
| CCATGAAC | 0.159 |
| AGAACGGC | 0.106 |
| TATGGACA | 0.00453 |
| CGAAATCG | 0.164 |
| CTTAGATC | -0.376 |
| CTGAACAA | 0.0725 |
| CCTCCGAG | 0.207 |
| TGCAAGAA | 0.0859 |
| GAATGGAA | 0.162 |
| GGATCGGA | 0.359 |
| AAGGGTAA | 0.0138 |
| GATGGTCA | 0.0334 |
| AAATCAGG | -0.235 |
| CCAGAGGA | 0.00507 |
| CCGAACGC | 0.287 |
| ACACGAGG | -0.218 |
| AACGCGTG | -0.0323 |
| AGGTTCAG | 0.0188 |
| CTTCCTCC | -0.13 |
| CTTAAAAA | -0.227 |
| AAGTCACC | -0.156 |

| Sequence | PBM E-score |
| --- | --- |
| CTAAGCTA | 0.00865 |
| AGTCGGGC | 0.0481 |
| ACTGCTCC | 0.22 |
| GGAGCTGA | 0.0619 |
| CATGGACG | 0.0495 |
| CGCGCCGC | 0.307 |
| CTGTGCCA | -0.134 |
| CGCTCCCG | 0.175 |
| ACCAACCC | -0.0153 |
| ACGTCGGA | 0.175 |
| ACAGCTGA | -0.0273 |
| AGAATTAT | 0.076 |
| CCCCGCAG | 0.225 |
| CCTCTATA | -0.199 |
| ACGAAAAA | -0.196 |
| GGGTCCCA | 0.0605 |
| CCGGCACG | 0.279 |
| CGGCTAAG | 0.0549 |
| AAAGCTAG | -0.177 |
| CTCGAGGC | 0.0164 |
| CGAAGCCC | 0.021 |
| GGCCACAA | -0.0451 |
| AAGCAGTG | -0.031 |
| GAAACGGA | 0.395 |
| CGCAGGCC | 0.109 |

| Sequence | PBM E-score |
| --- | --- |
| CGCAGCGA | -0.00392 |
| CGCGCGTC | 0.207 |
| ATTGTCGC | -0.00189 |
| ATATGAGG | -0.0144 |
| AGGTGACG | -0.166 |
| AAGAGTCG | -0.0684 |
| CCCGAGAA | 0.333 |
| ATACCCAG | -0.116 |
| ATTGAACA | -0.0508 |
| CACGTCAC | -0.111 |
| GGGATCCA | 0.222 |
| CGTGTAGA | 0.0113 |
| CAATATAA | 0.101 |
| TGCGAGCA | -0.00946 |
| CGTACGGC | -0.0531 |
| ATATAACG | 0.135 |
| ACTGTATG | -0.0881 |
| CGGCCAGA | 0.207 |
| ACGGCTAG | -0.152 |
| GGTGACTA | -0.0832 |
| CCTGATGC | 0.0727 |
| AACCCATT | 0.0501 |
